In all, about 190,000 compounds went through this assay and about 520 (0.27%) were called active. The inconclusive results got no clear call from the source; some entries with a clear call stand among them for comparison.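 The calls were made as follows: active = GTP binding activity at least 20 points away from the 100% control level, either lower or higher; inconclusive = compound flagged as likely green fluorescent, judged across all proteins; inactive = the rest.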
Molecular target: Ras-related C3 botulinum toxin substrate 1 (Homo sapiens) (UniProt P63000)
Assay: wildtype Rac1 GTP binding modulators, primary screen, biochemical, GST-Rac1 beads, flow cytometry, multiplex (AID 757)
Details: fluorescent GTP binding, at 10 µM, actives lie on both sides, 0 = cold GTP competed, 100 = untreated

| Structure (SMILES) | GTP binding activity (% of control) |
| --- | --- |
| COCCOC(=O)C1=C(C)OC(N)=C(C#N)C1c1cc2cccc(C)c2nc1Cl (stereo unspecified) | inconclusive: 94% |
| S=C(c1ccc2c(c1)OCO2)N1CCCCC1 | inconclusive: 106% |
| O=C(Nc1sc2c(c1C(=O)O)CCCCC2)c1ccccc1 | inactive: 80% |
| CC(CCc1ccccc1)NC(=O)CN1CCSc2ccccc21 (stereo unspecified) | inactive: 100% |
| Cc1cc2ncn(CCC(=O)NC(C)(C)C)c2cc1C | active: 77% |
| O=C(Nc1cccc2ccccc12)N1CCN(Cc2ccccc2)CC1 | inconclusive: 91% |
| Cc1cc(C(=O)COC(=O)c2nc3nccc(C)n3n2)c(C)n1CC1CCCO1 (stereo unspecified) | inconclusive: 93% |
| CC(C)c1ccc(OCC(O)CN2CCN(c3ccccc3)CC2)cc1 (stereo unspecified) | inconclusive: 107% |
| CCOC(=O)c1c(-c2ccc(C)o2)csc1NC(=O)CSc1nncs1 | inconclusive: 110% |
| CC(OC(=O)c1ccc2c(=O)n3c(nc2c1)CCCCC3)C(=O)Nc1ccc(Cl)cn1 (stereo unspecified) | inconclusive: 106% |
| O=C(Cc1ncc(C(F)(F)F)cc1Cl)NCc1ccco1 | inconclusive: 94% |
| O=C(Nc1cccnc1)c1ccc2nc(-c3ccccc3)c(-c3ccccc3)nc2c1 | inconclusive: 93% |
| Cc1ccccc1Nc1nn2c(=O)c3ccccc3nc2s1 | inconclusive: 87% |
| CSc1ccc(Cl)c(C(=O)OCC(=O)Nc2ccccc2OC(F)F)c1 | inactive: 103% |
| C=C(C)COc1ccc(-c2nc(N)nc(C)c2-c2ccc(OC)cc2)c(O)c1 | inconclusive: 90% |
| O=S(=O)(Nc1nnc(-c2ccccc2)s1)c1ccc(Cl)cc1 | inconclusive: 89% |
| CC(NS(=O)(=O)c1ccccc1)C(=O)NCCc1ccccn1 (stereo unspecified) | inconclusive: 98% |
| CC(=O)C(Sc1nccc(-c2cccs2)n1)C(C)=O | inconclusive: 99% |
| CCCCC(CC(O)COCCC)C(=O)NN (stereo unspecified) | inconclusive: 97% |
| CC(C)(C)NC(=O)NC(=O)CSc1cccc(C(F)(F)F)c1 | inconclusive: 99% |
| Cn1c(=O)[nH]c(=O)c2c1nc(N1CCCCCC1)n2CCCSc1nnnn1-c1ccccc1 | inactive: 101% |
| c1ccc(-c2cc(-c3nn4c(-c5ccco5)nnc4s3)c3ccccc3n2)cc1 | inconclusive: 90% |
| CN(C)/C=C/C1=CC(=O)CC(C)(C)C1 | inconclusive: 93% |
| CC1CC(C)(C)NC(=S)N1CCCC(=O)Nc1ccc(F)cc1 (stereo unspecified) | inactive: 100% |

| Structure (SMILES) | GTP binding activity (% of control) |
| --- | --- |
| CNCc1ccccc1Sc1cc(O)ccc1O | inconclusive: 104% |
| O=C(Cc1ccccc1)c1c[nH]c(C(=O)NC2CCCC2)c1 | inactive: 100% |
| OC(c1ccc(OCc2ccccc2)cc1)c1nnc(-c2ccccc2)o1 (stereo unspecified) | active: 74% |
| O=c1c2[nH]c3ccccc3c2ncn1CCCn1ccnc1 | inconclusive: 96% |
| COCCCNc1nc(=S)[nH]c2cc(OC)c(OC)cc12 | inconclusive: 65% |
| Cc1cc(NC(=O)c2cccc(C(=O)Nc3cc(C)on3)n2)no1 | inactive: 88% |
| O=C(Nc1cccc2nsnc12)c1ccc(-c2ccc(Br)cc2)o1 | inconclusive: 95% |
| CCN1/C(=C\C=C2\C(=O)N(C)C(=S)N2C)Sc2ccccc21 | inactive: 88% |
| O=C1C2C3C=CC(C3)C2C(=O)N1c1ccc(N2CCN(c3ccccn3)CC2)c([N+](=O)[O-])c1 (stereo unspecified) | inactive: 96% |
| O=C(Nc1cccc(S(=O)(=O)N2CCCC2)c1)c1cc(-c2ccccn2)nc2ccccc12 | inactive: 99% |
| O=C(NCc1ccco1)C1CC(=O)N(c2ccc(O)cc2)C1 (stereo unspecified) | inconclusive: 97% |
| CN1/C(=C/C(=S)NC(=O)C2(C)CC2(Cl)Cl)C(C)(C)c2ccccc21 (stereo unspecified) | inconclusive: 102% |
| CCOc1ccccc1-n1nnnc1SCC(=O)Nc1cc(C)on1 | inconclusive: 103% |
| Cc1cc(-c2ccc3ccccc3c2)n2ncnc2n1 | inactive: 94% |
| O=C(NNC(=O)C1CCN(S(=O)(=O)c2ccc(Cl)cc2)CC1)c1ccc(Cl)cc1 | inconclusive: 103% |
| O=S(=O)(NCc1ccccn1)c1ccccc1 | inconclusive: 103% |
| Cc1nn(C)c(C(=O)NNC(=S)NC2CCCCC2)c1Cl | inconclusive: 100% |
| COc1ccc(CCNC(=S)NCc2ccc(Cl)c(Cl)c2)cc1OC | inconclusive: 91% |
| Cc1cc(C)c2c(N)c3cccc(C)c3nc2n1 | inconclusive: 101% |
| Cc1ccc(NC(=O)c2ccc3c(c2)C(=O)N(Cc2cccnc2)C3=O)c(C)c1 | inactive: 98% |
| Cc1ccc(-n2c(SCC(=O)N3CCCc4ccccc43)nnc2-c2cccnc2)c(C)c1 | inconclusive: 117% |
| O=C1c2ccccc2-c2nc3ccccc3nc21 | inconclusive: 91% |
| O=C(CSc1ccccc1)Nc1ccc(NC(=O)c2ccco2)cc1 | inactive: 101% |
| CCOc1ccccc1C(=O)NC(CO)C(=O)O (stereo unspecified) | inactive: 102% |

| Structure (SMILES) | GTP binding activity (% of control) |
| --- | --- |
| Cc1nn(-c2ccccc2)c(Cl)c1C(=O)Nc1c(C)n(C)n(-c2ccccc2)c1=O | inconclusive: 91% |
| Cc1ccc(NC(=O)CNS(=O)(=O)c2cccs2)cc1F | inconclusive: 105% |
| COC(=O)c1ccccc1NC(=O)c1cc2ncc(Br)cn2n1 | inconclusive: 89% |
| CN(/N=C/c1ccncc1)C1=NS(=O)(=O)c2ccccc21 | inconclusive: 71% |
| O=C1CCCC(O)=C1C=NCc1ccccc1 | inactive: 98% |
| Fc1ccc(/C=C\c2nccc3c2[nH]c2ccccc23)cc1 | inconclusive: 94% |
| CC(C)NC(=O)Cn1cc(C(=O)COc2ccccc2)c2ccccc21 | inactive: 99% |
| O=C(OCC(=O)c1cccs1)c1ccc([N+](=O)[O-])o1 | inactive: 99% |
| CCOC(=O)CSc1nc2ccccc2n1CC(=O)N(C(C)C)C(C)C | inconclusive: 101% |
| Cc1nc2nc(SCC(=O)O)nn2c(C)c1Cc1c(F)cccc1Cl | active: 78% |
| CN(/N=C/C=C/c1ccccc1)C1=NS(=O)(=O)c2ccccc21 | active: 65% |
| CC1=CC(c2ccc(Cl)cc2)n2nc(NS(=O)(=O)c3ccc(C)cc3)nc2N1 (stereo unspecified) | inconclusive: 92% |
| N#CC1=C(N)N(c2ccccc2C#N)C2=C(C(=O)CCC2)C1c1ccsc1 (stereo unspecified) | inconclusive: 106% |
| O=S(=O)(Nc1ccc(Cl)nn1)c1ccccc1 | inconclusive: 95% |
| Cc1ccc(NCc2nnc(SCC(=O)Nc3nnc(C)s3)n2C)cc1 | inconclusive: 92% |
| COc1cc(-c2cc(=O)c3c(O)cc(O)cc3o2)ccc1O | active: 78% |
| COc1cc2nc(/C=C/c3cc(OC)c(OC)c(OC)c3)sc2cc1SC | inconclusive: 92% |
| COc1cc2nc(C3CCC3)n(NC(=O)COc3ccccc3)c(=O)c2cc1OC | inconclusive: 92% |
| O=C(Cn1cnnn1)Nc1cccc(S(=O)(=O)N2CCCCC2)c1 | inconclusive: 115% |
| CCN(CC)S(=O)(=O)c1ccc(C(=O)OCn2nnc3ccccc3c2=O)cc1 | inactive: 104% |
| COc1ccccc1-c1cc(SC)c(C#N)c(=O)o1 | inactive: 101% |
| COc1ccc(C(=O)N2CCCC(CCC(=O)NCc3ccc(F)c(F)c3)C2)o1 (stereo unspecified) | inconclusive: 109% |
| COc1cccc(/C=N/Nc2ncnc3c2ncn3Cc2ccccc2)c1O | inconclusive: 79% |
| COC(=O)c1c(NC(=O)C2C3C=CC(CC3)C2C(=O)O)sc(C)c1C (stereo unspecified) | inconclusive: 93% |

| Structure (SMILES) | GTP binding activity (% of control) |
| --- | --- |
| CCOC(=O)c1nc(Nc2ccc(C(C)=O)cc2)c2ccccc2n1 | active: 78% |
| COCCNC(=S)Nc1ccc2[nH]c(=O)[nH]c2c1 | inactive: 91% |
| COc1ccc(CNc2nn[nH]n2)cc1OC | inconclusive: 104% |
| COc1cccc(C(=O)N2CCN(C3CCC(c4ccccc4)CC3)CC2)c1OC (stereo unspecified) | inconclusive: 105% |
| COc1cccc(NC(=O)CN(c2ccc3c(c2)OCO3)S(C)(=O)=O)c1 | inconclusive: 94% |
| C=CCn1c(CSc2nc3ccccc3s2)n[nH]c1=S | inconclusive: 102% |
| CCCN(Cc1ccccc1)C(=S)Nc1ccc(C(C)=O)cc1 | inconclusive: 94% |
| COc1ccc(CNCC(=O)Nc2ccccc2-n2cccc2)cc1 | inactive: 107% |
| COc1ccc(-n2c(=S)[nH]c3cc(C(=O)Nc4cc(OC)c(OC)c(OC)c4)ccc3c2=O)c(OC)c1 | inconclusive: 87% |
| O=C(NCc1ccccn1)C1CC(c2ccc(Cl)c(Cl)c2)=NO1 (stereo unspecified) | inconclusive: 100% |
| COc1ccc(C(=S)N2CCCCC2)cc1Br | inconclusive: 96% |
| Cc1cc2cc(C(c3nnnn3Cc3ccco3)N3CCc4ccccc43)c(=O)[nH]c2cc1C (stereo unspecified) | inconclusive: 94% |
| CCC(C)NC(=O)CSc1c2c(nc3ccccc13)CCCC2 (stereo unspecified) | inactive: 98% |
| CCOC(=O)c1cc2c(=O)[nH]ccc2nc1C | inconclusive: 93% |
| O=C(O)C1CC=CCC1C(=O)NNS(=O)(=O)c1ccccc1 (stereo unspecified) | inactive: 99% |
| CC(C)COC(=O)NCCCOC(=O)Nc1ccccc1 | inconclusive: 102% |
| COC(=O)c1c(NC(=O)c2cccs2)sc2c1CCCC2 | inconclusive: 104% |
| Cc1ccc(NC(=O)Cn2ccc([N+](=O)[O-])n2)cc1C | inactive: 101% |
| O=C(O)C1Nc2c(O)cc(Cl)c([N+](=O)[O-])c2C2C=CCC12 (stereo unspecified) | inconclusive: 87% |
| O=C(CN1CC(=O)Oc2ccccc21)OCC(=O)c1cccc(Br)c1 | inconclusive: 104% |
| O=C(NCc1ccc(C(=O)O)cc1)OCc1ccccc1 | inactive: 101% |
| COC(=O)c1ccccc1NC(=O)c1ccc(COc2cc(C)cc(C)c2)o1 | inconclusive: 101% |
| CC(C)NC(=O)CN(c1cccc([N+](=O)[O-])c1)S(=O)(=O)c1ccccc1 | inconclusive: 89% |
| CCOC(=O)N1CCC(NC(=O)c2cc3c(-c4ccc(OC)c(OC)c4)nn(C)c3s2)CC1 | inconclusive: 92% |

From PubChem BioAssay AID757 (NMMLSC, 2007)
